The campaign covered roughly 50,000 compounds. About 800 (1.6%) showed an effect of 50% or more. The list shows a part of the results.

The target of the assay is Bcl-2-like protein 10 (Homo sapiens) (UniProt Q9HD36). Nature of the assay: TR3 peptide-Bcl-B binding displacers, biochemical primary FP assay, phenotype converters (AID 1240).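 Note: 0% = Bcl-B with tracer peptide and DMSO and 100% = tracer peptide lacking Bcl-B.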 The following applies: GST-Bcl-B / FITC-TR3 peptide fluorescence polarization; stronger effect = higher value; compound at 3.75 mg/L. For orientation: Fluorescence polarisation rises when a labelled molecule tumbles more slowly, as on binding a larger partner.
UniProt Q9HD36, sequence (Q9HD36 whole entry, looked up): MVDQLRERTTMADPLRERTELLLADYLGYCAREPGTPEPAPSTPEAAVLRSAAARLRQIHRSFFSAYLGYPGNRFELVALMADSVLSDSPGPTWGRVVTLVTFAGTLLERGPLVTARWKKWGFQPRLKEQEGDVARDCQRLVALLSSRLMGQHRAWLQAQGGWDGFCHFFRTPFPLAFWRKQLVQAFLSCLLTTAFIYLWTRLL
For the compound `CN1C(=O)N(C)C(NC(=O)NC(C)(C)C)C1NC(=O)NC(C)(C)C` (centres undefined), the displacement amounted to 14.5%. To `Cc1cc(C23CC4CC(CC(C(=O)O)(C4)C2)C3)c(C)cc1C12CC3CC(CC(C(=O)O)(C3)C1)C2` belongs -6.7%. To `CC(C)c1ccc(NC(=O)C2COc3ccccc3O2)cc1` (centres undefined) belongs 2.2%; to `Cc1ccc(-c2nc3ccccc3o2)cc1NC(=O)COc1ccc(Cl)cc1`, -8.5%; to `COc1ccc(CNc2ccc3c(c2)nc(C)n3C)cc1OC`, 0.9%.

`Cc1cc(C=C2C(=O)c3ccccc3C2=O)c(C)n1-c1ccc(N2CCOCC2)cc1`: the displacement is 0.7%.

Regarding `O=C(c1ccccc1F)N1CCN(Cc2ccccc2Cl)CC1`, the displacement was -12.8%. As for `COC(=O)c1ccccc1NC(=O)COc1cc(C)ccc1C(C)C`, the displacement stood at 3%. To `O=C(COc1ccc(Cl)cc1)N1CCN(C(=O)c2ccc(F)cc2)CC1` belongs -3.3%. Turning to `CCOc1c(C)cc2[nH]c(=S)[nH]c2c1C`, the displacement amounted to 10.3%. To `COc1ccccc1C(=O)Nc1ccc2c(c1)OCCO2` belongs -3.4%; to `CCOc1ccc(C(=O)Nc2ccc3nn(-c4ccc(OCC)cc4)nc3c2)cc1`, -1.5%; to `COC(=O)CN(c1ccc(C)cc1C)S(=O)(=O)c1ccccc1`, 17.6%. As for `CC(=O)OCCCn1c(=O)c2cc3c(=O)n(CCCOC(C)=O)c(=O)c3cc2c1=O`, the displacement amounted to 10%. To `O=C(N/N=C/c1cc(O)c(Br)cc1Br)c1cccc(F)c1` belongs -3.4%. To `Cc1cc(C)c(S(=O)(=O)N2CCN(c3ccccc3)CC2)c(C)c1` belongs -4.5%; to `O=C(C#Cc1cccc([N+](=O)[O-])c1)c1ccccc1`, 2.8%; to `CC1(C)Cc2c(sc3[nH]c(=S)n(Cc4ccccc4)c(=O)c23)CO1`, -9.2%. For `Cn1c(O)c(C(N)=NC(=O)c2ccccc2)c(=O)n(C)c1=O`, the displacement was -8%. To `CC1=C(C(=O)OC(C)C)C(c2ccccc2Cl)CC(=O)N1` (centres undefined) belongs -9.9%. Take `COc1ccc(NS(=O)(=O)c2ccc([N+](=O)[O-])cc2)cc1Cl`: the displacement is -5.8%. To `C/C(=C\C(=O)c1ccc(Cl)cc1)Nc1cc(C)ccc1Cl` belongs 6.2%; to `COc1ccccc1NC(=O)C1=C(C)Nc2sc(C#N)c(N)c2C1c1ccco1` (centres undefined), 9.1%. In the case of `O=C(Nc1ccccc1)C1C2/C=C\CCCCC21` (centres undefined), the displacement is -10.2%. To `Cc1ccc(OCC(=O)Nc2ncc(S(=O)(=O)c3ccc([N+](=O)[O-])cc3)s2)c(C(C)(C)C)c1` belongs -7.2%; to `O=C(CCCOc1ccccc1)Nc1cc(C(F)(F)F)ccc1Cl`, -1.9%; to `C=C(C)COc1ccc2c3c(c(=O)oc2c1C)CCCC3`, -5.8%. As to `Brc1ccc2ncnc(NCCCN3CCOCC3)c2c1`, the displacement was -0.7%.

On to `O=C(NCCCN1CCOCC1)C(=O)Nc1ccc(I)cc1`, for which the displacement is 11.9%. With `CC(=O)c1ccc(NC(=O)c2c(-c3ccccc3)noc2C)cc1`, the displacement is 6.8%. To `O=C(NNC(=O)c1ccc(Cl)c(Cl)c1)c1cccc(Cl)c1` belongs -12.7%; to `COc1cccc(NC(=O)c2ccc(CN(c3ccccc3)S(C)(=O)=O)cc2)c1`, -6.9%. To `COc1cc(/C=c2/sc3nc4ccccc4n3c2=O)cc(Br)c1OC` belongs 14.3%; to `Cc1ccccc1Nc1nc2nonc2nc1N1CCOCC1`, 13.3%; to `COc1ccc(OC)c(C2NC(=O)NC(C)=C2C(=O)OCc2ccc3c(c2)OCO3)c1` (centres undefined), -0.1%. To `COc1cc(/C=C2\C(=O)NC(=S)N(c3cccc(Br)c3)C2=O)c([N+](=O)[O-])cc1OC` belongs -3.8%; to `CN(C(=O)CN1C(=O)C(C)(C)Nc2ccccc21)c1ccccc1`, -3.2%. On to `CC(=O)c1cccc(NC(=O)COc2ccc(Cl)cc2C)c1`, for which the displacement was 11.8%.

Turning to `CCOc1ccc(Nc2nc(-c3sc(NC(=O)c4ccccc4)nc3C)cs2)cc1`, the displacement is 14.6%.

As for `CCOC(=O)c1ccc(N/C=C/C(=O)c2cccs2)cc1`, the displacement was 14.1%. To `Nc1nc(Oc2ccc(F)cc2)c(Br)c(=O)[nH]1` belongs -7.1%; to `COc1ccc(NC(=O)C2=C(C)NC(=S)NC2c2ccccc2F)cc1` (centres undefined), -0.6%. To `CC1CCN(C(=O)c2cccc(Cl)c2)CC1` belongs 4.5%. To `O=C1CC(c2ccccc2)CC2=C1C(c1ccc(-c3ccccc3)cc1)Nc1ccccc1N2` (centres undefined) belongs -6%; to `CC(=O)CC(=O)Nc1ccn(-c2ccccc2)n1`, 8.3%.

As to `CCC(=O)c1ccc(N2CCN(C(=O)c3ccccc3)CC2)c(F)c1`, the displacement is 4.2%. In the case of `COc1ccc(O)c(C(=O)CC(=O)c2ccc(C)cc2)c1`, the displacement is -14%.

Turning to `O=c1/c(=C/c2cc(Cl)ccc2OCc2ccccc2F)sc2nc3ccccc3n12`, the displacement turned out to be 4.2%. To `COc1ccc(OC)c(/C=C2/C=C(c3cccc4ccccc34)OC2=O)c1` belongs -38%; to `CCC(=O)Nc1cccc(NC(=O)c2ccc(Cl)c(Cl)c2)c1`, 15%.

As to `CN(C)c1ccc(NC(=O)C(=O)NCCOc2ccccc2)cc1`, the displacement was 3.6%. To `COc1ccc(N2C(=O)NC(=O)/C(=C/c3ccc(O)c([N+](=O)[O-])c3)C2=O)cc1` belongs -5.7%; to `Cc1cc(C(=O)N2CCN(Cc3ccccc3)CC2)ccc1[N+](=O)[O-]`, 12.7%; to `O=C1NC(=O)N(c2ccccc2)C(=O)/C1=C/c1cccc(Oc2ccccc2)c1`, -2.6%. For `COC(=O)c1cc(NC(=O)COc2ccc(Cl)cc2C)cc(C(=O)OC)c1`, the displacement is -3.8%. To `COc1cccc(CN2CCN(Cc3ccccc3[N+](=O)[O-])CC2)c1OC` belongs -4.9%. `Cc1cc(O)ccc1N=Cc1c(C)[nH]n(-c2ccccc2)c1=O`: the displacement was 5.9%. To `O=C(NC1CCCCC1)N1CCN(Cc2ccccc2)CC1` belongs 0.5%; to `CC(=O)c1cc(F)c(N2CCOCC2)cc1C`, 5.7%; to `O=C(Nc1nc2ccccc2n1CCOc1ccccc1)c1ccc(Cl)cc1`, -3.2%. To `O=C(NCC1CCCO1)c1cc2nc(-c3ccc([N+](=O)[O-])cc3)cc(C(F)(F)F)n2n1` (centres undefined) belongs 3.7%.

In the case of `CCN1C(=O)N(C)C2C1N(CC)C(=O)N2C` (centres undefined), the displacement was -7.1%. As for `O=C(CSc1nc2ccc([N+](=O)[O-])cc2s1)c1ccc(F)cc1`, the displacement is -1.7%. Turning to `COc1ccc(C(=O)COc2cc3c(C(=O)OC(C)C)c(C)oc3cc2Br)cc1`, the displacement turned out to be 8.8%. To `CC(=O)Nc1ccc(NS(=O)(=O)c2c(C)cc(C)cc2C)cc1` belongs 1.2%; to `CCOc1ccc(C(=O)Nc2cc(Cl)cc(Cl)c2)cc1Cl`, -1.1%; to `CCOC(=O)C1=C(C)NC(=O)NC1c1ccc(SC)cc1` (centres undefined), -9.2%. To `Cc1ccc(S(=O)(=O)C(CC(=O)c2ccc(O)cc2)c2ccccc2)cc1` (centres undefined) belongs 7.9%; to `CCC1(C)Cc2c(sc3[nH]c(=S)n(-c4ccccc4)c(=O)c23)CO1` (centres undefined), 14.2%.

Values taken from PubChem BioAssay AID1240 (Sanford-Burnham Center for Chemical Genomics, 2008).
